Measured values published in PubChem BioAssay AID463173 (ICCB-Longwood Screening Facility, Harvard Medical School, 2010).
Among all 52,000 compounds or so, about 4,300 (8.3%) were called active. Rule as the data show it: active = survival mostly below about 52% (no sharp cut-off); inactive = mostly above about 56%. This is one part of the list.

system: DeltatarO mutant; assay: S. aureus survival, RN4220 and DeltatarO strains – OD600, teichoic acid synthesis inhibitors, primary screen (AID 463173); details: S. aureus RN4220 wild type/DeltatarO growth, OD600, 18 h, hits give low values, screened at 18.75 µg/mL (by protocol)

| SMILES | survival |
| --- | --- |
| O=C(CCSCCc1ccccn1)Nc1cc(F)ccc1F | inactive: 79% |
| CCCCN(C)CCNC(=O)c1c(C)oc2ncnc(N3CCOCC3)c12 | inactive: 68% |
| Cc1ccc(NC(=O)c2cnn(-c3ccc(C)c(C)c3)c2C2CCN(C(=O)OC(C)(C)C)CC2)c(C)c1 | inactive: 109% |
| Cc1cccc(NC(=O)Cn2c(=O)n(CCC(C)C)c(=O)c3cccnc32)c1 | inactive: 115% |
| Cc1cccc(C(=O)Nc2cc3c(cc2N2CCCCC2)n(C)c(=O)c(=O)n3C)c1 | inactive: 94% |
| O=C(CCN1CCCCC1)c1ccccc1 | inactive: 87% |
| CC(=O)N1CCC2(CC1)OC(=O)C(C)=C2C(=O)Nc1cccc(Cl)c1C | inactive: 70% |
| CCCCC(=O)Nc1cc(C)c(O)c(-c2nc3ncccc3o2)c1 | inactive: 161% |
| CCOC(=O)Cn1cc(C#N)c2ccccc21 | inactive: 90% |
| O=C(CC1N=C2c3ccccc3N=C(SCc3ccccc3F)N2C1=O)NCCc1ccccc1 (centres undefined) | inactive: 69% |
| O=C1N=C2C=CC=CN2C(=O)C1Cc1ccccc1 (centres undefined) | inactive: 95% |
| CC1=C(C(=O)Nc2ccccc2)C(c2cccnc2)n2nc(SCc3ccccc3F)nc2N1 (centres undefined) | inactive: 65% |
| CCC(CC)C(=O)Nc1cc(-c2cccc(C)c2)nn1-c1ccccc1 | inactive: 94% |
| COc1cccc(CNC(=O)C2CCN(C(=O)N3CCOc4ccc(Cl)cc43)CC2)c1OC | inactive: 99% |
| COc1ccc(Cl)cc1NC(=O)c1cc(C)nc2c1c(C)nn2-c1ccccc1 | inactive: 109% |
| O=c1c2sc3ccccc3c2n(Cc2ccccc2F)c(=O)n1Cc1ccccc1 | inactive: 76% |
| Cc1ccc(Cn2c(=O)n(Cc3ccco3)c(=O)c3sc4ccccc4c32)cc1 | inactive: 90% |
| O=c1c2cnn(-c3ccc(Cl)cc3)c2ncn1Cc1ccc(Cl)cc1Cl | inactive: 102% |
| Cc1nc2c(C(=O)NCc3ccccc3)cnn2c(C)c1Cc1ccc(F)cc1 | inactive: 83% |
| COc1ccccc1NC(=O)N1c2ccccc2Sc2ccccc21 | active: -6% |

| SMILES | survival |
| --- | --- |
| COc1ccc(OC)c(-n2nnc3c(sc4nc(C)c(Br)c(C)c43)c2=O)c1 | inactive: 59% |
| Cc1nc(C)c(-c2ccc(SCC(=O)Nc3ccc(Cl)c(Cl)c3)nn2)s1 | active: 46% |
| Cc1ccc(CCNC(=O)CCN2N=C(c3ccc(C)cc3)CCC2=O)cc1 | inactive: 107% |
| Cc1ccc(Cl)cc1Nc1nc2ccccc2c2nncn12 | inactive: 104% |
| Cc1ccsc1CCN1C(=O)N(c2ccccc2)C(=O)C1CC(=O)Nc1ccc(F)cc1 (centres undefined) | inactive: 114% |
| COc1ccc(CCC(=O)NCc2ccc3c(c2)CCN3C(=O)c2ccc(F)cc2)cc1 | inactive: 89% |
| COc1ccc(-c2nc3cc(NC(=O)Cc4ccc(Cl)cc4)ccc3o2)cc1OC | inactive: 47% |
| CC(C)CC(=O)Nc1nnc(S(=O)(=O)N2CCCCCC2)s1 | inactive: 109% |
| Cc1cccc(C)c1NC(=O)c1ccc2c(c1)N(Cc1cccc(Cl)c1)C(=O)c1ccccc1S2=O (centres undefined) | inactive: 105% |
| COc1ccc(-c2noc(CCC(=O)N(C)c3ccccc3C)n2)cc1 | inactive: 80% |
| COCCCNS(=O)(=O)c1cc(-c2onc(C)c2C)ccc1OC | inactive: 115% |
| COc1ccc(N2CCN(C(=O)CSc3n[nH]c(-c4ccccc4)n3)CC2)cc1 | inactive: 84% |
| COc1ccc(CNCCNC(=O)c2ccncc2)c(OC)c1OC | inactive: 99% |
| CN(C)C(=O)c1ccc(NC(=O)Cn2nnnc2-c2ccccc2F)cc1 | inactive: 108% |
| CCN(CC)C(=O)C1C(=O)N(C)C2(C)CC1c1ccccc1O2 (centres undefined) | inactive: 74% |
| O=C(Nc1ccc(-c2nc3cc(NC(=O)c4ccccc4Cl)ccc3o2)cc1)c1ccccc1Cl | inactive: 83% |
| COc1ccc(Nc2c3c(nc4ccc(NC(=O)/C=C/c5cc(OC)c(OC)c(OC)c5)cc24)CCCC3)cc1OC | inactive: 66% |
| COc1cccc(C2(O)CCN(C(=O)c3cccs3)CC2)c1 | inactive: 57% |
| O=C(c1ccc(C(F)(F)F)cc1)N1CCC(c2noc(-c3ccc(S(=O)(=O)N4CCCC4)cc3)n2)CC1 | inactive: 85% |
| O=C1NC(=O)C(=Cc2ccc(N3CCCC3)o2)C(=O)N1 | inactive: 66% |

| SMILES | survival |
| --- | --- |
| NC(=O)c1ccccc1NC(=O)C1CCCN(c2ncnc3onc(-c4ccc(F)cc4)c23)C1 (centres undefined) | inactive: 71% |
| O=C(CCc1nc2cccnc2n1Cc1cccs1)Nc1cccc(C(F)(F)F)c1 | inactive: 65% |
| Cc1ccc(NC(=O)CN2C(=O)CCc3cc(S(=O)(=O)N4CCOCC4)ccc32)cc1N(C)C | inactive: 93% |
| O=C(NC1CCCC1)c1ccc2c(c1)N(Cc1ccc(C(F)(F)F)cc1)C(=O)c1ccccc1S2 | inactive: 84% |
| Cc1ccccc1Cn1c(=O)n(Cc2ccc3c(c2)OCO3)c(=O)c2oc3ccccc3c21 | inactive: 110% |
| COc1ccc(OC)c(-c2nc3c(C#N)c[nH]n3c2NC2CCCCC2)c1 | inactive: 89% |
| Cc1cccc(NC(=O)NC2CC3CCCC(C2)N3CC(C)C)c1 (centres undefined) | inactive: 94% |
| Nn1c(Nc2ccccc2)nc2sc3c(c2c1=O)CCCC3 | inactive: 96% |
| CC(=O)Nc1ccc2oc(-c3ccccc3)nc2c1 | inactive: 94% |
| CCCN(c1ccc(C(C)C)cc1)S(=O)(=O)c1ccc2c(c1)CCN2C(=O)CC | inactive: 105% |
| COc1ccccc1CNC(=O)Cc1c(C)c2c(cc(C)c3c(C)coc32)oc1=O | inactive: 71% |
| CN(C)c1ccc(CN(CC2CCCO2)C(=O)COc2ccccc2Cl)cc1 (centres undefined) | inactive: 45% |
| N#Cc1ccc(-c2cccs2)nc1SCc1c(F)cccc1Cl | active: 36% |
| Cc1ccccc1C(=O)N(Cc1ccc(N(C)C)cc1)Cc1ccco1 | inactive: 83% |
| O=C1OC2(c3ccccc3)C3CCCC2C13 | inactive: 121% |
| O=C(Nc1cc(F)ccc1F)N1CCC(CN2CCOCC2)CC1 | inactive: 87% |
| COc1ccc(-n2cc(-c3ccccc3)c3c(NC4CCCCC4)ncnc32)cc1 | inactive: 123% |
| COc1ccc(CCNC(=O)Cc2nn(C)c(=O)c3ccccc23)cc1OC | inactive: 97% |
| O=C(/C=C/c1ccccc1)Nc1ccc2c(c1)OCCO2 | inactive: 76% |
